# Data from the supplement of paper PMC8728848.
# The list shows a part of the results.
# Columns and labels:
# Assay in all cases: glycan array binding signal (z-score within array); higher = stronger binding
# Settings in all cases: glycan notation: IUPAC condensed, linker removed
# [1] = biological target: Fuc(a1-2)Gal(b1-4)[Fuc(a1-3)]GlcNAc(b1-2)[Fuc(a1-2)Gal(b1-4)[Fuc(a1-3)]GlcNAc(b1-4)]Man(a1-3)[Fuc(a1-2)Gal(b1-4)[Fuc(a1-3)]GlcNAc(b1-2)Man(a1-6)]Man(b1-4)GlcNAc(b1-4)GlcNAc
# Procedure, shortened: (§1)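 The Consortium for Functional Glycomics database supplied 3228 glycan arrays, of which those lacking an available protein sequence were dropped. The binding signal, a within-array Z-score, was averaged across arrays of the same protein sequence and across linkers. Negative scores can be read as non-binding.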
# [2] = biological target: Fuc(a1-2)Gal(b1-4)[Fuc(a1-3)]GlcNAc(b1-3)Gal(b1-4)[Fuc(a1-3)]GlcNAc
# Procedure, shortened: as §1
# [3] = biological target: Fuc(a1-2)Gal(b1-4)[Fuc(a1-3)]GlcNAc(b1-3)Gal(b1-4)[Fuc(a1-3)]GlcNAc(b1-3)Gal(b1-4)[Fuc(a1-3)]GlcNAc
# Procedure, shortened: as §1
# [4] = biological target: Fuc(a1-2)Gal(b1-4)[Fuc(a1-3)]GlcNAc(b1-3)GalNAc
# Procedure, shortened: as §1
# [5] = biological target: Fuc(a1-2)Gal6S(b1-4)Glc
# Procedure, shortened: as §1
# [6] = biological target: Fuc(a1-2)Gal6S(b1-4)Glc6S
# Procedure, shortened: as §1
# [7] = biological target: Fuc(a1-2)Gal6S(b1-4)GlcNAc
# Procedure, shortened: as §1
# [8] = biological target: Fuc(a1-2)[Gal(a1-3)]Gal
# Procedure, shortened: as §1
# [9] = biological target: Fuc(a1-2)[Gal(a1-3)]Gal(b1-3)GlcNAc
# Procedure, shortened: as §1
# [10] = biological target: Fuc(a1-2)[Gal(a1-3)]Gal(b1-3)GlcNAc(b1-2)Man(a1-3)[Fuc(a1-2)[Gal(a1-3)]Gal(b1-3)GlcNAc(b1-2)Man(a1-6)]Man(b1-4)GlcNAc(b1-4)GlcNAc
# Procedure, shortened: as §1
# [11] = biological target: Fuc(a1-2)[Gal(a1-3)]Gal(b1-3)GlcNAc(b1-3)GalNAc
# Procedure, shortened: as §1
# [12] = biological target: Fuc(a1-2)[Gal(a1-3)]Gal(b1-4)Glc
# Procedure, shortened: as §1
# [13] = biological target: Fuc(a1-2)[Gal(a1-3)]Gal(b1-4)GlcNAc
# Procedure, shortened: as §1
# [14] = biological target: Fuc(a1-2)[Gal(a1-3)]Gal(b1-4)GlcNAc(b1-2)Man(a1-3)[Fuc(a1-2)[Gal(a1-3)]Gal(b1-4)GlcNAc(b1-2)Man(a1-6)]Man(b1-4)GlcNAc(b1-4)GlcNAc
# Procedure, shortened: as §1
# [15] = biological target: Fuc(a1-2)[Gal(a1-3)]Gal(b1-4)GlcNAc(b1-2)Man(a1-3)[Fuc(a1-2)[Gal(a1-3)]Gal(b1-4)GlcNAc(b1-2)Man(a1-6)]Man(b1-4)GlcNAc(b1-4)[Fuc(a1-6)]GlcNAc
# Procedure, shortened: as §1
# [16] = biological target: Fuc(a1-2)[Gal(a1-3)]Gal(b1-4)GlcNAc(b1-3)GalNAc
# Procedure, shortened: as §1
# [17] = biological target: Fuc(a1-2)[Gal(a1-3)]Gal(b1-4)[Fuc(a1-3)]Glc
# Procedure, shortened: as §1
# [18] = biological target: Fuc(a1-2)[Gal(a1-3)]Gal(b1-4)[Fuc(a1-3)]GlcNAc
# Procedure, shortened: as §1
# [19] = biological target: Fuc(a1-2)[Gal(a1-3)]Gal(b1-4)[Fuc(a1-3)]GlcNAc(b1-3)GalNAc
# Procedure, shortened: as §1
# [20] = biological target: Fuc(a1-2)[Gal(a1-4)]Gal(b1-4)GlcNAc
# Procedure, shortened: as §1
# [21] = biological target: Fuc(a1-2)[GalNAc(a1-3)]Gal
# Procedure, shortened: as §1
# [22] = biological target: Fuc(a1-2)[GalNAc(a1-3)]Gal(b1-3)GalNAc(a1-3)[Fuc(a1-2)]Gal(b1-4)GlcNAc
# Procedure, shortened: as §1
# [23] = biological target: Fuc(a1-2)[GalNAc(a1-3)]Gal(b1-3)GlcNAc
# Procedure, shortened: as §1
# [24] = biological target: Fuc(a1-2)[GalNAc(a1-3)]Gal(b1-3)GlcNAc(b1-2)Man(a1-3)[Fuc(a1-2)[GalNAc(a1-3)]Gal(b1-3)GlcNAc(b1-2)Man(a1-6)]Man(b1-4)GlcNAc(b1-4)GlcNAc
# Procedure, shortened: as §1
# [25] = biological target: Fuc(a1-2)[GalNAc(a1-3)]Gal(b1-3)GlcNAc(b1-3)GalNAc
# Procedure, shortened: as §1
# [26] = biological target: Fuc(a1-2)[GalNAc(a1-3)]Gal(b1-4)Glc
# Procedure, shortened: as §1
# [27] = biological target: Fuc(a1-2)[GalNAc(a1-3)]Gal(b1-4)GlcNAc
# Procedure, shortened: as §1
# [28] = biological target: Fuc(a1-2)[GalNAc(a1-3)]Gal(b1-4)GlcNAc(b1-2)Man(a1-3)[Fuc(a1-2)[GalNAc(a1-3)]Gal(b1-4)GlcNAc(b1-2)Man(a1-6)]Man(b1-4)GlcNAc(b1-4)GlcNAc
# Procedure, shortened: as §1
# [29] = biological target: Fuc(a1-2)[GalNAc(a1-3)]Gal(b1-4)GlcNAc(b1-3)Gal(b1-4)GlcNAc
# Procedure, shortened: as §1
# [30] = biological target: Fuc(a1-2)[GalNAc(a1-3)]Gal(b1-4)GlcNAc(b1-3)Gal(b1-4)GlcNAc(b1-3)Gal(b1-4)GlcNAc
# Procedure, shortened: as §1
binder,measurement,setting,value
"CwpV (Clostridium difficile), B6EFG6 (protein) MKIPKKIAAMLTVTMIAGSSTAGIASAQTVATNLTGQERYETAVKISQDGWKNADEVVIVNDSSIADALSATPFAKAKNAPILLTSKDKLNDKTKAEIQRLKAKKVYLIGGTSVLSTNIEKEIKDLKISFERISGAERYQTSLELAKKLDAISDVKKIAVVNGEKGLADAVSVGAPAAQNNMPVILADSKNGTAVADKFIKDAGITQSYVVGGESSISEAVKNKLPNSTRLGGTDRNDTNAKVIKEFYKKTDLKNAYVTKDGMNKQDQLIDALAVGVLGAKNQSPVVLVGKNLSASQKSLVNSKSFDKITKVGGNGNETAFNEMKSLQEVKTVEAKTISELKSAIDKATANDVINFKPTSEVKEAFTIQTDKAVTVNLNGTYTKTVTINMPNGDVNNYAKVDDVVIDDVKDGTFVNYGKITNLKVNDKNGAKIENNSKGEIGSLTVASGASQVKVTNGGKITTVTNNSKGTTIDNKGTISSVKGDNSPTISGNSPSSNSSGGSSSSGGSSGGSSGGSSSSKVGQIKFSATDKQIKMASGDKTVDPSDNTYILKLTNGTVKDGDVKANVKVAGLPSGLDYTAVGNRSANTITITVSGTTSQSIQNDLNNVSVLVKAGAVSGTGATDSIANTTFEIKKYVAAPAVGQLTFDATDKQIKMASGDKTVDPSDDTYVLTLTKGTAKDGDIKANVEVTGLPSGLDYTAEGDSSANTITIPVSGTASPAVQTDLDNVSVLVKAGAVSETTATDSAANATFEVKKYVAPAVGQLTFDATDKQIKMASGDKTVDPSDDTYVLTLTKGTAKDGDIKANVEVTGLPSGLDYTAEGDSSANTITITVSGTASQAVQTDLDNVSVLVKAGAVSETTATDSAANATFEVKKYVAPAIGQLTFDATDKQIKMASGDKTVDPSDDTYVLTLTKGTAKDGDIKANVEVTGLPSGLDYTAEGDSSANTITITVSGTASQAVQTDLDNVSVLVKAGAVSETTATDSAANATFEVKKHASDPISTIGKISSGLSSLFNILK",glycan array binding signal (z-score),[1],0.255
same,glycan array binding signal (z-score),[2],-0.02
same,glycan array binding signal (z-score),[3],-0.232
same,glycan array binding signal (z-score),[4],0.596
same,glycan array binding signal (z-score),[5],-0.055
same,glycan array binding signal (z-score),[6],-0.073
same,glycan array binding signal (z-score),[7],-0.297
same,glycan array binding signal (z-score),[8],-0.323
same,glycan array binding signal (z-score),[9],-0.335
same,glycan array binding signal (z-score),[10],-0.145
same,glycan array binding signal (z-score),[11],-0.264
same,glycan array binding signal (z-score),[12],-0.278
same,glycan array binding signal (z-score),[13],-0.267
same,glycan array binding signal (z-score),[14],-0.147
same,glycan array binding signal (z-score),[15],0.139
same,glycan array binding signal (z-score),[16],-0.279
same,glycan array binding signal (z-score),[17],-0.334
same,glycan array binding signal (z-score),[18],-0.324
same,glycan array binding signal (z-score),[19],0.41
same,glycan array binding signal (z-score),[20],1.1
same,glycan array binding signal (z-score),[21],-0.307
same,glycan array binding signal (z-score),[22],-0.257
same,glycan array binding signal (z-score),[23],-0.304
same,glycan array binding signal (z-score),[24],-0.269
same,glycan array binding signal (z-score),[25],0.024
same,glycan array binding signal (z-score),[26],-0.325
same,glycan array binding signal (z-score),[27],-0.318
same,glycan array binding signal (z-score),[28],-0.032
same,glycan array binding signal (z-score),[29],0.349
same,glycan array binding signal (z-score),[30],-0.092
